Source: PubChem BioAssay AID759 (NMMLSC, 2007)
About 270 (0.14%) of roughly 190,000 compounds were called active. Inconclusive results, whose numbers are uncertain, are shown with a selection of clear calls.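 How the source made its calls: active means GTP binding activity at least 20% away from the 100% baseline, either lowered as inhibitor or raised as activator; inconclusive means flagged as likely green fluorescent, judged across all proteins in the well; inactive means the rest.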

Each compound was assayed against GTPase HRas (Homo sapiens) (UniProt P01112) (assay: HRas wt fluorescent GTP binding changes, either direction – biochemical, wildtype, bead-based flow cytometry, multiplex, primary screen (AID 759;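 further: 0% = unlabeled GTP competition control and 100% = no-compound control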)). Details: GST-Ras wt beads, Bodipy-FL-GTP binding, at 10 µM, actives lie on both sides.
UniProt P01112, sequence (P01112 whole entry, looked up): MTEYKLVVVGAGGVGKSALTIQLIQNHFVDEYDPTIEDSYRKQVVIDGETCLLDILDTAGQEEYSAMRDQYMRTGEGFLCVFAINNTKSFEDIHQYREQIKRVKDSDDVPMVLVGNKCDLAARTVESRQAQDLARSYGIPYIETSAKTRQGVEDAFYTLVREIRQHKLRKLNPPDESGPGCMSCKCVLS

| SMILES | GTP binding activity |
| --- | --- |
| Cc1cc(NCc2ccccn2)n2c(nc3ccccc32)c1C#N | active: 75% |
| COc1cc(NS(=O)(=O)c2ccc(Nc3nc(-c4ccccc4)cs3)cc2)nc(OC)n1 | active: 79% |
| CC1CCN(CCCNC(=O)COc2cc(=O)n(C)c3ccccc23)CC1 | inconclusive: 107% |
| Cc1noc(C)c1C(c1ccccc1)S(=O)(=O)c1ccccc1 (configuration not stated) | inconclusive: 102% |
| CSCCC(NC(=O)C1CCC(C)CC1)C(=O)N1CCN(c2ccccn2)CC1 (configuration not stated) | inconclusive: 108% |
| COc1cccc(N=Nc2c(N)[nH]n3c(=O)c4c(nc23)CCCC4)c1 | inconclusive: 62% |
| COc1ccc(C(C)=O)cc1COC(=O)c1cccnc1SC | inactive: 96% |
| COc1ccc(N(C(=O)c2ccc(Br)o2)C2C=CS(=O)(=O)C2)cc1 (configuration not stated) | inconclusive: 101% |
| COCCNC(=S)N/N=C1\CC(C)CC(C)(C)C1 (configuration not stated) | inactive: 96% |
| COc1ccc(/C=C(\C#N)C(=O)ONC2=NCCCCC2)cc1 | inactive: 97% |
| OCCC1CN(Cc2ccccc2O)CCN1CCc1ccccc1 (configuration not stated) | active: 18% |
| CC(Sc1nc2ccccc2s1)C(=O)c1c(N)n(C)c(=O)n(C)c1=O (configuration not stated) | inconclusive: 93% |
| Cc1cccc(NCc2ccc(O)c3ncccc23)c1C | inconclusive: 83% |
| Cn1nnnc1SCC(=O)Nc1ccc2c(c1)OCO2 | inactive: 94% |
| Brc1[nH]nc2ccccc12 | inconclusive: 91% |
| CCn1nc(NC(=O)c2ccncc2)c2cc3cccc(C)c3nc21 | inconclusive: 104% |
| Cc1cc(C(C)(C)C)cc(S(=O)(=O)Nc2cccc(C(=O)O)c2)c1C | inconclusive: 95% |
| CC(=C\c1ccco1)/C=C(\C#N)C(=O)NCCc1c[nH]c2ccccc12 | inactive: 98% |
| COCCN(C(=S)Nc1ccc(OC)cc1)C1CCN(C(C)C)CC1 | inactive: 101% |
| Cc1cccc2cc(CN(Cc3ccc(F)cc3)C(=O)N3CCOCC3)c3nnnn3c12 | inconclusive: 105% |
| CN(C)c1ccc(/C=C/C(=O)c2cccc(Br)c2)cc1 | inconclusive: 116% |
| CCOC(=O)C1(Cc2cccc(F)c2)CCN(Cc2nc(CC)[nH]c2C)CC1 | inconclusive: 121% |
| Cc1cccc2sc(NC(=O)CSCc3ccccc3)nc12 | inconclusive: 92% |
| COc1ccc(C2(CNC(=O)Cc3ccc(OC)c(OC)c3)CCOCC2)cc1 | inconclusive: 94% |

| SMILES | GTP binding activity |
| --- | --- |
| COc1ccccc1-c1cc(C(F)(F)F)nc(N2CCN(c3ccccc3)CC2)n1 | inconclusive: 106% |
| Cc1c(Cc2ccccc2)c(=O)oc2cc(OCC(N)=O)ccc12 | inactive: 93% |
| CCOC(=O)N1CCN(C(=S)Nc2cccc(C)c2C)CC1 | inconclusive: 102% |
| CCOCc1c(C(=O)NC2CCCCCC2)oc2ccccc12 | inconclusive: 96% |
| O=C(NCCCN1CCCCC1)c1ccc2c(c1)NC(=O)C(N1CCOCC1)S2 (configuration not stated) | inconclusive: 94% |
| CCCCCCn1c(=O)[nH]c2nc3cc(N)c(C)cc3nc2c1=O | inconclusive: 89% |
| COc1cccc(Nc2c(F)c(F)c(F)c(F)c2C(=O)O)c1 | inactive: 113% |
| Cc1ccc(N2CC(O)=C(c3ccccc3)C2=N)cc1 | inconclusive: 92% |
| NS(=O)(=O)c1ccc(NC(=O)C2C3C=CC(C3)C2C(=O)O)cc1 (configuration not stated) | inconclusive: 98% |
| CCC(=O)Nc1c(C#N)c2nc3ccccc3nc2n1C1CCCCC1 | inconclusive: 110% |
| Fc1cccc(Nc2ncnc3[nH]ncc23)c1 | inactive: 87% |
| O=C(/C=C/c1ccccc1)N1CCC(Cc2ccccc2)CC1 | inconclusive: 92% |
| CN(C(=O)Nc1ccc(Cl)cc1Cl)C1CCCC1 | inactive: 99% |
| CCOC(=O)N1CCN(/C=C(\C#N)c2nc3ccccc3s2)CC1 | active: 121% [activator] |
| O=C1OC(OC2CCCCC2)(c2ccccc2)c2ccccc21 (configuration not stated) | inconclusive: 110% |
| CCn1c(SCC(=O)N/N=C/c2c[nH]c3ccccc23)nnc1-c1ccc(Cl)cc1 | inactive: 100% |
| Cn1c(C(=O)N2CCc3ccccc3C2)cc2c(=O)n3ccccc3nc21 | inconclusive: 117% |
| Cc1ccccc1NC(=S)N(CCCN1CCOCC1)Cc1ccccn1 | inconclusive: 102% |
| CC1=CC(=O)C=C(C)C1=NOS(=O)(=O)c1ccccc1 | inactive: 92% |
| CC(NC(=O)OCc1ccccc1)C(=O)Oc1cc2oc(=O)cc(-c3ccccc3)c2cc1Cl (configuration not stated) | inconclusive: 93% |
| O=C(CCN1CCc2ccccc2C1)Nc1cccc(F)c1 | inconclusive: 103% |
| CC1CCN(CCCCOc2ccc([N+](=O)[O-])cc2)CC1 | inconclusive: 97% |
| Nc1nnc(/C=C/c2ccccc2)s1 | inactive: 99% |
